Sequences with one replicate were seen in a single cluster, so their values are uncertain.
The sequences below were run on ATP (assay: switch fluorescence ratio, 500 uM ATP over buffer (Cy3 cluster intensity, sum of 5 cycles each) (fold (ratio)); higher = stronger signal-on switching upon ATP binding; sequences stand for … in TCGTCGGCAGCGTCAGATGTGTATAAGAGACAGTTTTTTTTTTTTTTTTTTTTTTTTT…TC). Conditions: aptamer strand: ATP DNA aptamer (quencher-CACCTGGGGGAGTATTGCGGAGGAAGG + anchor), 100 nM annealed; ATP concentration: 500 uM; one replicate.
Method in brief: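 Switching-strand clusters labelled with Cy3 on a modified Illumina MiSeq flow-cell were annealed to 100 nM quencher-labelled ATP aptamer, imaged in selection buffer, and re-imaged after 15 min with 500 uM ATP at 22 °C. This was done over five cycles with NaOH stripping and re-annealing in between. The fluorescence ratio is summed target-cycle over summed buffer-cycle Cy3 intensity per cluster, averaged per switch-domain sequence, excluding clusters outside 100-1000 RFU.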
Sequence AGCGTATTAG has a switch fluorescence ratio of 1.02. Work on TGAGGCCAGA yielded a switch fluorescence ratio of 1.07. For CTATTGTCAG, the switch fluorescence ratio was 0.983. CCATCCTGCA gave a switch fluorescence ratio of 2.51. GGTTCCAAG showed a switch fluorescence ratio of 1.01. In the case of ACATCGAACG, the switch fluorescence ratio is reported as 1.05. Work on CCGTGGGCGC yielded a switch fluorescence ratio of 1.09. Work on GGTTGGAA yielded a switch fluorescence ratio of 0.996. CGCTTTTTGG showed a switch fluorescence ratio of 0.975. Work on TCTTAATTGC yielded a switch fluorescence ratio of 1.02. For CGGGGTAGCA, the switch fluorescence ratio was 1.11. Work on TAGGCCTAC yielded a switch fluorescence ratio of 1.03. With TGCTAGGGCG the switch fluorescence ratio was 0.956. With TTGAAGAATC the switch fluorescence ratio was 1.04. In the case of TAGCGTTACT, the switch fluorescence ratio is reported as 1.42. TTGAGGGGCC showed a switch fluorescence ratio of 0.988. Sequence AACGCGAAAT has a switch fluorescence ratio of 1.11. For ATAAGCTTTG, the switch fluorescence ratio was 0.969. Sequence ATTTCTTTGG has a switch fluorescence ratio of 1.05. AGACTCTTGG showed a switch fluorescence ratio of 1.02. In the case of AACGGGTATC, the switch fluorescence ratio is reported as 0.977. In the case of CATGATCGGT, the switch fluorescence ratio is reported as 0.962. For TCTTATCAGT, the switch fluorescence ratio was 0.999. Work on ACGGCCCATG yielded a switch fluorescence ratio of 1.09. In the case of CATAGCTCCG, the switch fluorescence ratio is reported as 0.943. ATGTGTGTAG was tested, and the switch fluorescence ratio was 1.08. In the case of GATGACAGCG, the switch fluorescence ratio is reported as 0.999. For CCGACGGATT, the switch fluorescence ratio was 4.82. For CGTACTTTT, the switch fluorescence ratio was 1.02. AGGTTATGGA gave a switch fluorescence ratio of 0.967. GTCTGGGTGG gave a switch fluorescence ratio of 0.977. Sequence AGACGACTAT has a switch fluorescence ratio of 1.12. TTGTTGTACC gave a switch fluorescence ratio of 0.982. With GCCAGACAGC the switch fluorescence ratio was 1.01. Work on CTAGGTATCG yielded a switch fluorescence ratio of 0.976. AACATCGTTG gave a switch fluorescence ratio of 0.972. GGACGCACAT gave a switch fluorescence ratio of 1.57. Work on TTCCTGGATT yielded a switch fluorescence ratio of 1.02. For TTCCCCGTGT, the switch fluorescence ratio was 1.14. CTGGGGGTC showed a switch fluorescence ratio of 0.92. TTACATCGCA was tested, and the switch fluorescence ratio was 1.1. CAACACCATT was tested, and the switch fluorescence ratio was 0.992. Sequence AACAAATCCT has a switch fluorescence ratio of 1.2. For GACGATATAA, the switch fluorescence ratio was 1.18. AGGGCCACG was tested, and the switch fluorescence ratio was 0.992. In the case of TGAGTTAAA, the switch fluorescence ratio is reported as 1.01. Sequence TGACGCGTGC has a switch fluorescence ratio of 1.4. AACCTCAGAA gave a switch fluorescence ratio of 1.03. With GATGCCCCTT the switch fluorescence ratio was 1.08. Work on GAAGCTCAGG yielded a switch fluorescence ratio of 1.13. In the case of TAAAATCGTT, the switch fluorescence ratio is reported as 0.989. AGGCCGGGAG gave a switch fluorescence ratio of 1.05. GGGTAAGACG showed a switch fluorescence ratio of 1.01. GGAGGAATCA was tested, and the switch fluorescence ratio was 0.985. GGCGTAATGC was tested, and the switch fluorescence ratio was 1.64. Work on TCGGACCTGG yielded a switch fluorescence ratio of 1.08. GAAATCAGAC gave a switch fluorescence ratio of 1. Sequence AGGTTTTACA has a switch fluorescence ratio of 0.965. For TTGTCATGTT, the switch fluorescence ratio was 0.977. GCGTGTGCAT showed a switch fluorescence ratio of 1.07. Work on TTAACAGCTC yielded a switch fluorescence ratio of 1.03. GGAATACATT gave a switch fluorescence ratio of 0.992. TAGCCGGAAG was tested, and the switch fluorescence ratio was 0.984. GGACTCATTT was tested, and the switch fluorescence ratio was 1. Sequence CGATCATTTG has a switch fluorescence ratio of 0.998. Sequence CAGAGATCTA has a switch fluorescence ratio of 1.01. Work on CAACTTTTGG yielded a switch fluorescence ratio of 1.02. For GGTCCTATAG, the switch fluorescence ratio was 0.98. In the case of CCGTCGACTT, the switch fluorescence ratio is reported as 1.05. ACGTCAGCTG was tested, and the switch fluorescence ratio was 1.01. With CACAGTTATC the switch fluorescence ratio was 1.05. AGAGCCTATT gave a switch fluorescence ratio of 0.978. Sequence TTCAGGAGTA has a switch fluorescence ratio of 1.04. Sequence GCTTTCAGCC has a switch fluorescence ratio of 1.02. Work on AGATGAAGGA yielded a switch fluorescence ratio of 0.989. In the case of GGGCATTGAC, the switch fluorescence ratio is reported as 1.03. With TTGCCATTGC the switch fluorescence ratio was 0.977. With AGATCCTTT the switch fluorescence ratio was 1. Sequence AAGGCATGCC has a switch fluorescence ratio of 0.965. Sequence AGCGGTGATG has a switch fluorescence ratio of 1.03. TCTCGGGGAG showed a switch fluorescence ratio of 1.02. With CGTTCAGGTG the switch fluorescence ratio was 2.26. With ATAGGGAGTT the switch fluorescence ratio was 0.933. For ATCACGGGTC, the switch fluorescence ratio was 1.01. ATGTCCCTCC showed a switch fluorescence ratio of 1.1. GTAGAGCGTG gave a switch fluorescence ratio of 1. AGAGAAGTT was tested, and the switch fluorescence ratio was 0.976. Work on ATGTAGACGA yielded a switch fluorescence ratio of 1. With CTGGGTTGGA the switch fluorescence ratio was 0.976. GATGGTATTG showed a switch fluorescence ratio of 1.02. Work on AATGGTCGGT yielded a switch fluorescence ratio of 1.01. Work on TCATTGCTGC yielded a switch fluorescence ratio of 1. For AATGAGCTTT, the switch fluorescence ratio was 0.937. CGCAGTATGT gave a switch fluorescence ratio of 1.12. Work on GCCCCGGGGC yielded a switch fluorescence ratio of 1.04. CGTAACAGGT was tested, and the switch fluorescence ratio was 1.03. CTAGTACGCG was tested, and the switch fluorescence ratio was 1.02. Work on AGGGATGAGC yielded a switch fluorescence ratio of 0.996. In the case of TGTCGCCGTA, the switch fluorescence ratio is reported as 1.06. For CCCATATCAG, the switch fluorescence ratio was 0.982. For CTTGCGAGGA, the switch fluorescence ratio was 1.01. For ACTCGTTAAT, the switch fluorescence ratio was 1.05. CGCGAACCGG was tested, and the switch fluorescence ratio was 1.02. Sequence TTTATAAATC has a switch fluorescence ratio of 0.954. For TGCACGGGCC, the switch fluorescence ratio was 1.05. AATTTCTGCT showed a switch fluorescence ratio of 0.983. For GGATCAGAGT, the switch fluorescence ratio was 1.04. GCTGTAAGCT was tested, and the switch fluorescence ratio was 1.01. In the case of GTCAGTGGTC, the switch fluorescence ratio is reported as 0.955. In the case of TACAAGGGAG, the switch fluorescence ratio is reported as 0.949. GGTGTGCTCA showed a switch fluorescence ratio of 0.929. For AACGTCACTT, the switch fluorescence ratio was 1.67. Work on GCTGGTACAT yielded a switch fluorescence ratio of 1.01. With TTTACTATGC the switch fluorescence ratio was 1.06. CCTCTTTGTT gave a switch fluorescence ratio of 1.06. With GAGGTTGAAC the switch fluorescence ratio was 0.915. Work on AGTGCTTGGT yielded a switch fluorescence ratio of 1.05. With GATGCTGCTT the switch fluorescence ratio was 1.03. In the case of ATCTTCAGAC, the switch fluorescence ratio is reported as 1.06. With AGGGACGACT the switch fluorescence ratio was 1.03. ACTAAGGGAT was tested, and the switch fluorescence ratio was 1.01. ATGAGGAAGC was tested, and the switch fluorescence ratio was 1.05. In the case of AGGCGGTCAA, the switch fluorescence ratio is reported as 1.01. Work on TCTTCACCGG yielded a switch fluorescence ratio of 1.04. With TAGACGTG the switch fluorescence ratio was 1.04. In the case of GGAGGAGAAA, the switch fluorescence ratio is reported as 1.02. TGTTGGATGC gave a switch fluorescence ratio of 1.02. GGGTTCCATA showed a switch fluorescence ratio of 1.01. In the case of TTGGCTCCCT, the switch fluorescence ratio is reported as 1.04. ACAGCCGCG was tested, and the switch fluorescence ratio was 1.18. In the case of GTGAGGACGG, the switch fluorescence ratio is reported as 1.01. For CACATTATAA, the switch fluorescence ratio was 0.995. Sequence TTATATTGC has a switch fluorescence ratio of 0.962. CCCCTATTTT showed a switch fluorescence ratio of 0.995. CTTTTAAGCC gave a switch fluorescence ratio of 1.01. Sequence ATGTTTCCTG has a switch fluorescence ratio of 0.984. ATGGTAAAC was tested, and the switch fluorescence ratio was 1.05. GTTTTGCACG showed a switch fluorescence ratio of 1.01. With TTCCTGAGCA the switch fluorescence ratio was 1.81. In the case of ACTAGGGT, the switch fluorescence ratio is reported as 0.954. AAAACATTCT was tested, and the switch fluorescence ratio was 1.06. In the case of GATGACTTGG, the switch fluorescence ratio is reported as 0.998. Sequence CTGGGTGGAG has a switch fluorescence ratio of 1.01. TGAGTTCACT gave a switch fluorescence ratio of 1. Sequence GACCGGGGGC has a switch fluorescence ratio of 1.06. ATCGACAGGT gave a switch fluorescence ratio of 1.1. Sequence TCTCAGGGAC has a switch fluorescence ratio of 1.11. With AAAAAGGAGT the switch fluorescence ratio was 0.974. In the case of TTTGTGGACA, the switch fluorescence ratio is reported as 0.989. GTCGAAAATA showed a switch fluorescence ratio of 0.998. With CGAGAGACGG the switch fluorescence ratio was 1. TAGTACAAAA gave a switch fluorescence ratio of 0.974. In the case of GATGACGTAC, the switch fluorescence ratio is reported as 1.93. CGCCCACGGT was tested, and the switch fluorescence ratio was 1.54. ATTTAAACAC showed a switch fluorescence ratio of 0.979. Sequence TCAGATTTCG has a switch fluorescence ratio of 1.01. For AACGCCTGCC, the switch fluorescence ratio was 1.59. CAGCTCGACC gave a switch fluorescence ratio of 1.19. For TGCATGGTAG, the switch fluorescence ratio was 0.998. For GGTAAGGATT, the switch fluorescence ratio was 0.965. For GTGTCCCCGA, the switch fluorescence ratio was 0.993. AAAAAGTGTC showed a switch fluorescence ratio of 0.968. GCTTGTTGAA was tested, and the switch fluorescence ratio was 0.976. Sequence CGTAGCCCGC has a switch fluorescence ratio of 1.15. Sequence TTAACGTATT has a switch fluorescence ratio of 1.11. With GCGCTCAATA the switch fluorescence ratio was 1.09. For GCATGAAAAA, the switch fluorescence ratio was 1.01. AACTGATCGT was tested, and the switch fluorescence ratio was 0.982. With CTGCGGGACA the switch fluorescence ratio was 1.03. ACTTTCTAC showed a switch fluorescence ratio of 1.13. For CGTGCAAACT, the switch fluorescence ratio was 1.18. In the case of ACCTGGATTT, the switch fluorescence ratio is reported as 0.993. Sequence GTTTAGTGT has a switch fluorescence ratio of 1.02. Work on AATATGTCC yielded a switch fluorescence ratio of 1.01. TGGAAGTTGT was tested, and the switch fluorescence ratio was 1.05. For CACGCCTTTC, the switch fluorescence ratio was 1.52. GCGGCGAATT was tested, and the switch fluorescence ratio was 1. GTGTGATAAG was tested, and the switch fluorescence ratio was 1.07. TAAGGAGTCT was tested, and the switch fluorescence ratio was 0.932. Sequence TTCCTGGTGT has a switch fluorescence ratio of 1.66. In the case of CCTCTTAGTG, the switch fluorescence ratio is reported as 1.08. For AATAAAAAAT, the switch fluorescence ratio was 1.02. ACAAGTTTTT was tested, and the switch fluorescence ratio was 1.08. With AAGTACCCCG the switch fluorescence ratio was 1.09. GACCTAACAA gave a switch fluorescence ratio of 1. With GCCCTTTCTC the switch fluorescence ratio was 1.02. In the case of TGCGGGCGGT, the switch fluorescence ratio is reported as 0.976. TGGACTAAGG was tested, and the switch fluorescence ratio was 0.963. ATCTTATGCG gave a switch fluorescence ratio of 1.03. ACCACACATT was tested, and the switch fluorescence ratio was 1.32. In the case of ACTTGGACGG, the switch fluorescence ratio is reported as 1.1. GGCAATGGTG gave a switch fluorescence ratio of 1.04. GGTAGAGTGT was tested, and the switch fluorescence ratio was 1.01. With GGACGTCTCG the switch fluorescence ratio was 1.03. With ACAATGTTT the switch fluorescence ratio was 1.05. In the case of GCTATGTGTT, the switch fluorescence ratio is reported as 1.01. CGTGCTAC was tested, and the switch fluorescence ratio was 1.43. With TTCAATATTC the switch fluorescence ratio was 1.05. Work on GCTAAAGGCC yielded a switch fluorescence ratio of 1.02. For GAACATGCTA, the switch fluorescence ratio was 1.02. For CTGCCGACTG, the switch fluorescence ratio was 1.04.

— the supplement of paper PMC10126150
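Note: ATP exposure 15 min at 22 °C before imaging.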
